Here are results for 20 compounds from ChEMBL document CHEMBL5308541, “MAIP: An Open-Source Tool to Enrich High-Throughput Screening Output and Identify Novel, Druglike Molecules with Antimalarial Activity” (ACS Med Chem Lett, 2023).

About 540 (0.36%) of roughly 150,000 compounds showed an effect of 50% or more. The list shows a part of the results.

For the experiment, the system named is Plasmodium falciparum. Description: Primary screen in NF54 nanoGlo assay, in single point, at 2uM, 72h; a lower Z score goes with more inhibition. Format: functional, Erythrocyte. Particulars: timepoint 72 hour.
As to `CC(=O)N(C)CC(=O)N1CCN(c2cc(C)nc(Nc3ccc(C)cc3)n2)CC1`, the “% Inhibition” value is on record as -2% and the Z score came out at 0.34.

Turning to `Cc1ccc(CNCc2ccccc2CN2CC[C@H](O)C2)c(-c2cnn(C)c2)c1`, the “% Inhibition” value is given as 1% and the Z score is given as -0.25.

Consider `CN1CCC(CNC(=O)c2cc(-c3ccco3)[nH]n2)(N2CCCCC2)CC1`, for which the “% Inhibition” value is recorded as -2% and the Z score stood at 0.39.

On to `CC(C)N1CCC(N2CCC3(CCC(=O)N(CCc4c[nH]cn4)C3)CC2)CC1`, for which the “% Inhibition” value is -5% and the Z score was found to be 0.99.

`CCCN1C(=O)N[C@@H](CC(=O)NCc2ccc3ccccc3n2)C1=O`: the “% Inhibition” value was -1% and the Z score is 0.1.

As to `O=C(NCc1cccc(CN2CCOCC2)c1)c1cc2ccc(Br)cc2[nH]1`, the “% Inhibition” value is on record as -2% and the Z score was 0.37.

As for `Cc1nccn1-c1ccc(C(C)NC2CCN3CCCC3C2)cc1F` (stereo not given), the “% Inhibition” value was found to be 0% and the Z score worked out at 0.

As for `O=C(NCC1CCN(C(=O)C[C@H]2CCc3ccccc32)CC1)c1cncc(F)c1`, the “% Inhibition” value is recorded as -12% and the Z score is on record as 2.12.

As for `CCN(CC)S(=O)(=O)c1ccc2c(c1)CCN2C(=O)[C@H](C)N1C(=O)c2ccc(C)cc2C1=O`, the “% Inhibition” value is -12% and the Z score stood at 1.77.

Take `Clc1ccc(NC[C@H]2CCCNC2)cc1`: the “% Inhibition” value is given as -12% and the Z score is listed as 1.99.

For the compound `CCN(C)C[C@@H](C)CNc1nc(N)nc(C)c1C`, the “% Inhibition” value is given as -3% and the Z score was 0.67.

For `Cc1cccc(N2CCC(NCc3c[nH]c4nccnc34)CC2)n1`, the “% Inhibition” value is on record as -2% and the Z score stood at 0.33.

`CCCNC(=O)N1CCn2nc(-c3nc4cc(Cl)ccc4[nH]3)cc2C1`: the “% Inhibition” value is on record as 1% and the Z score is reported as -0.12.

For the compound `CC[C@H](NC(=O)NCCOC)c1cccc(S(N)(=O)=O)c1`, the “% Inhibition” value is -3% and the Z score came to 0.63.

With `CC(C)(C)OC(=O)N1CC(NC(=O)c2cc3c(F)cc(Br)cc3[nH]2)C1`, the “% Inhibition” value was -1% and the Z score amounted to 0.25.

With `CC(C)c1ccc(-c2noc(CCN3CCN(CCCN(C)C)CC3)n2)cc1`, the “% Inhibition” value was 34% and the Z score was -6.73.

In the case of `CN1CCN(c2cnn([C@H]3CCCN(Cc4cccc5nccn45)C3)c(=O)c2)CC1`, the “% Inhibition” value was -3% and the Z score is on record as 0.57.

For `O=C(NC[C@H]1CN(CC2CCN(CC3CC3)CC2)C(=O)CO1)c1cc2ccccc2[nH]1`, the “% Inhibition” value is recorded as -8% and the Z score was 1.25.

With `CN1CC[C@H](CNCc2ccccc2)c2ccccc21`, the “% Inhibition” value is reported as -15% and the Z score is 3.12.

As for `O=C(NC1CCCC(C2CC2)C1)N1CCC(c2ccco2)C1` (stereo not given), the “% Inhibition” value is reported as -8% and the Z score was 1.32.

One may read the % Inhibition as the change of the read-out against control, counted positive when it falls.
